Here are results for 87 molecules from article PMC4336329 (PLoS ONE, 2015).

Out of some 310,000 compounds screened, about 14,000 (4.5%) showed an effect of 50% or more. The effect is printed as a negative number. The list shows a part of the results.
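Also: peak tail current of the secondary pulse compared with the same well before compound.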

For the assay, the target named is human ether-à-go-go-related gene (hERG) potassium channel (human, UniProt Q12809). As to the kind of experiment: primary screen, population patch clamp on CHO cells stably expressing hERG.
Chain of human ether-à-go-go-related gene (hERG) potassium channel (Q12809 whole entry, looked up): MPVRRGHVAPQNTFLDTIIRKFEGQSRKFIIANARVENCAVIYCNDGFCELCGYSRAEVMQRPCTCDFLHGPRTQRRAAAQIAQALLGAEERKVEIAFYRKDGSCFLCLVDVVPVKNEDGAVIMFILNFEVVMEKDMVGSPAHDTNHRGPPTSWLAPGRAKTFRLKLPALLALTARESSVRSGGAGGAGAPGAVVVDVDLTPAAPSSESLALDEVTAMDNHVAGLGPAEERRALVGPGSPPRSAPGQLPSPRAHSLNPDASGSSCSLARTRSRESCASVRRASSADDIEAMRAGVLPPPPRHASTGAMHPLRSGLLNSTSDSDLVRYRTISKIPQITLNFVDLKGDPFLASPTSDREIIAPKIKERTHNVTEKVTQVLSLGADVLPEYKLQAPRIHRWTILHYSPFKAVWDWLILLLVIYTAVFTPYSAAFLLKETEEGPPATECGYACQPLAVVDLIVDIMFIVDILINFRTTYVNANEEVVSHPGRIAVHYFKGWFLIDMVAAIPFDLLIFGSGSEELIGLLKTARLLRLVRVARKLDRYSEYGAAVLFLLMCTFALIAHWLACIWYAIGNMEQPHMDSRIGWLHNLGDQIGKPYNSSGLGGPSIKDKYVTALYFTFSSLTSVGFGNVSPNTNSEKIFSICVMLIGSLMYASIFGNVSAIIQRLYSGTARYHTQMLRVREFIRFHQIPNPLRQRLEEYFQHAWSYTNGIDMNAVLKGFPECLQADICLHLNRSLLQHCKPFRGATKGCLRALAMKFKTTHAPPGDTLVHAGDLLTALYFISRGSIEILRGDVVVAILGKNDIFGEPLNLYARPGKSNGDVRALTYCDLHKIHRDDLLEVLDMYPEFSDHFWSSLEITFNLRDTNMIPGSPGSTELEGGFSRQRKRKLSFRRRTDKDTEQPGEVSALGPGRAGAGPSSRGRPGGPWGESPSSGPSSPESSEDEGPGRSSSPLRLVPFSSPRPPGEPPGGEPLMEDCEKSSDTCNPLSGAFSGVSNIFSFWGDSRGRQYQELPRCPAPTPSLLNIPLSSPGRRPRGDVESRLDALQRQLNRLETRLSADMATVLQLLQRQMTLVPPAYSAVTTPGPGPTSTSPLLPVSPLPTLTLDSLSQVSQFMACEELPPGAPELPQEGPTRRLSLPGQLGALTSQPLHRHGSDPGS
Turning to `COc1ccc(C(=O)NC(=S)Nc2ccc(CN3CCCCC3)cc2)cc1Cl`, the “hERG current change (%, negative = inhibition) at 10uM” value is recorded as -42.7%.
As for `CC(NC(=O)COC(=O)/C(=C/c1cccs1)c1cccs1)c1ccccc1` (stereo not drawn), the “hERG current change (%, negative = inhibition) at 10uM” value was found to be 1.71%.
As for `O=C(Nc1ccc(N2CCCC2)c(Cl)c1)c1ccc2c(c1)OCCO2`, the “hERG current change (%, negative = inhibition) at 10uM” value stood at 11.8%.
Under `CN(C)CCN(C(=O)c1cccs1)c1nc2cc3c(cc2s1)OCCO3.Cl` stands -23.6%; under `CCC1CCCCN1C(=O)/C=C/c1ccc2c(c1)OCO2` (stereo not drawn), -20.7%; under `CC(=O)c1ccc(NC(=O)CN2CCC(NC(=O)C3CCCCC3)CC2)cc1`, -6.72%.
Turning to `O=C(O)c1cccc(S(=O)(=O)Nc2cc(Cl)ccc2Cl)c1`, the “hERG current change (%, negative = inhibition) at 10uM” value was 14.1%.
In the case of `CC(=O)N1CCN(c2ccc(NC(=O)c3cc(Cl)ccc3Cl)cc2)CC1` it was 20.2%; in that of `Cn1c(=O)c(=O)n(C)c2cc(S(=O)(=O)N3CCN(c4ccc(F)cc4)CC3)ccc21`, -15.8%.
In the case of `Cc1oc(-c2ccccc2F)nc1CS(=O)(=O)CC(=O)NCCCc1ccccc1` it was -9.05%; in that of `CC1CCN(CCCn2c(=S)[nH]c3c(sc4ccccc43)c2=O)CC1.Cl`, -2.06%; in that of `O=C(CCOc1ccccc1)Nc1ccc(S(=O)(=O)Nc2ncccn2)cc1`, -18.2%.
On to `O=C(CCCC(=O)OCC1CCCO1)OCC1CCCO1` (stereo not drawn), for which the “hERG current change (%, negative = inhibition) at 10uM” value is reported as 8.27%.
With `Cc1cc(C)c2c(N)c(C(=O)N/N=C/c3ccccc3)sc2n1`, the “hERG current change (%, negative = inhibition) at 10uM” value turned out to be 19%.
As to `O=C(NCc1ccccc1C(F)(F)F)C1CC(c2cccc(F)c2)=NO1` (stereo not drawn), the “hERG current change (%, negative = inhibition) at 10uM” value was -3.26%.
Turning to `Cc1ccc(Oc2c(CO)c(-c3ccccc3)nn2C)cc1`, the “hERG current change (%, negative = inhibition) at 10uM” value turned out to be 12.4%.
In the case of `COc1ccc([C@H]2/C=C\CN(S(=O)(=O)c3ccc(C)cc3)[C@@H](C)C(=O)N2Cc2ccc(F)cc2)cc1`, the “hERG current change (%, negative = inhibition) at 10uM” value was -44%.
Turning to `CCOCCOC(=O)C(C)Sc1n[nH]c(=O)[nH]c1=O` (stereo not drawn), the “hERG current change (%, negative = inhibition) at 10uM” value is given as 5.53%.
Regarding `O=C(Cc1cccs1)N1CCN(S(=O)(=O)c2ccc(F)c(F)c2)CC1`, the “hERG current change (%, negative = inhibition) at 10uM” value is on record as -19.9%.
Regarding `Cc1cc(C)cc(-n2ncc3c2CCCC3NC(=O)c2ccccc2N2CCOCC2)c1` (stereo not drawn), the “hERG current change (%, negative = inhibition) at 10uM” value is given as -30.5%.
Turning to `O=C(N/N=C/c1ccc(-c2ccccc2Cl)o1)c1ccccc1`, the “hERG current change (%, negative = inhibition) at 10uM” value is reported as 12.4%.
Consider `COc1ccc(/C=N\NC(=O)c2c(C)nc3ccc(Br)cn23)cc1`, for which the “hERG current change (%, negative = inhibition) at 10uM” value turned out to be 0.421%.
On to `O=C(COC(=O)c1n[nH]c2ccccc12)c1cc(F)ccc1F`, for which the “hERG current change (%, negative = inhibition) at 10uM” value is reported as 1.25%.
In the case of `COc1ccc(CCC(=O)N2CCN(C3CCCCC3)CC2)cc1`, the “hERG current change (%, negative = inhibition) at 10uM” value is -69.1%.
On to `COc1ccc(NC(=O)Nc2ccc(OC)c(OC)c2)c([N+](=O)[O-])c1`, for which the “hERG current change (%, negative = inhibition) at 10uM” value was 11.1%.
In the case of `COc1ccc(CCNC(=O)CN(c2ccc(OC)c(OC)c2)S(=O)(=O)c2ccccc2)cc1OC` it was -9.79%; in that of `CCOC(=O)c1cc(C#N)c(Nc2ccc(C)cc2)nc1C(F)(F)F`, 12%; in that of `Nc1ccnn1Cc1ccncc1`, 13%.
As to `CC(=O)N(CCOc1ccccc1)CCOc1ccccc1`, the “hERG current change (%, negative = inhibition) at 10uM” value is listed as -7.74%.
As to `CN(CC(=O)Nc1ccccc1Cl)C(=O)CSc1nnc(-c2ccco2)o1`, the “hERG current change (%, negative = inhibition) at 10uM” value was -7.79%.
With `CCOc1ccc(NS(=O)(=O)c2ccc(C(=O)N3CCCCCC3)cc2)cc1`, the “hERG current change (%, negative = inhibition) at 10uM” value was -15.4%.
As to `Cc1nc2nc(C)c(NS(=O)(=O)c3ccc(C4CCCCC4)cc3)c(=O)n2[nH]1`, the “hERG current change (%, negative = inhibition) at 10uM” value turned out to be 24.2%.
For the molecule `COc1cccc(-c2noc(CCC(=O)NCCc3ccccc3)n2)c1`, the “hERG current change (%, negative = inhibition) at 10uM” value is on record as -9.49%.
Take `O=C(C[n+]1ccccc1)N/N=C/c1ccc(C(=O)O)cc1.[Cl-]`: the “hERG current change (%, negative = inhibition) at 10uM” value worked out at 0.121%.
For the molecule `COC(=O)c1ccccc1S(=O)(=O)N1CCC(C(=O)OCC(=O)NC2CCCCC2C)CC1` (stereo not drawn), the “hERG current change (%, negative = inhibition) at 10uM” value is -20.2%.
`Cc1noc(-c2ccccc2)c1NC(=O)Nc1ccc(Cl)cc1`: the “hERG current change (%, negative = inhibition) at 10uM” value worked out at 7.78%.
In the case of `COc1ccc(OC)c(CNC(=O)CCCc2cn(C)c3ccccc23)c1` it was -3.98%; in that of `O=C(O)c1sc2cccc(Cl)c2c1Cl`, -0.477%; in that of `COc1ccc(NC(=O)C2CC(c3ccccc3O)=NO2)cc1OC` (stereo not drawn), 13.5%.
`COC(=O)C1=C(c2ccccc2)C[C@@H]2CC[C@H]1N2C(=O)NCc1ccc(F)cc1`: the “hERG current change (%, negative = inhibition) at 10uM” value is on record as -9.03%.
On to `CCc1nnc(NC(=O)CSc2ncnc3scc(-c4ccc(C)cc4)c23)s1`, for which the “hERG current change (%, negative = inhibition) at 10uM” value is reported as -4.72%.
Turning to `COc1ccc(-c2cc3cc(OC)c(OC)cc3cn2)cc1OC.Cl`, the “hERG current change (%, negative = inhibition) at 10uM” value is 15.2%.
With `CC1(C)C2CCC(C2)C1(C)NC(=O)CNCc1cccs1.Cl` (stereo not drawn), the “hERG current change (%, negative = inhibition) at 10uM” value is recorded as 1.81%.
For `COC(=O)c1ccc2nccnc2c1`, the “hERG current change (%, negative = inhibition) at 10uM” value is 4.88%.
Take `COc1cc(/C=C/[N+](=O)[O-])ccc1OC(=O)c1cc2ccccc2oc1=O`: the “hERG current change (%, negative = inhibition) at 10uM” value was 20.1%.
Turning to `Cc1cc(NC(=O)/C=C/C(=O)N(CC(=O)NC2CCCC2)c2ccc(F)cc2)no1`, the “hERG current change (%, negative = inhibition) at 10uM” value is recorded as 0.716%.
As to `COc1ccc(CCn2c(O)c(/C=N/NC(=O)c3ccncc3)c(=O)[nH]c2=O)cc1OC`, the “hERG current change (%, negative = inhibition) at 10uM” value is 24.7%.
`CCOC(=O)C(CCCCCOc1ccc([N+](=O)[O-])cc1)C(=O)OCC`: the “hERG current change (%, negative = inhibition) at 10uM” value is -50.4%.
Under `CCOC(=O)Nc1ccc(C(=O)/C=C/c2ccccc2)cc1` stands -7.78%; under `c1ccc(-c2noc(CC3CCCCC3)n2)cc1`, 12.6%; under `Cc1ccc(NC(=O)CSc2sc3c(O)cc(=O)[nH]c3c2C#N)c(F)c1`, -12%.
In the case of `CCOc1ccc(N=C2NC(=O)S/C2=C\c2ccc(Cl)cc2)cc1` it was 16.2%; in that of `CCc1ccc2oc(C(=O)N3CCN(c4ccccc4OC)CC3)cc(=O)c2c1`, -68.7%; in that of `O=C(CN1CCN(C2CCCCC2)CC1)c1ccc2cc[nH]c2c1`, -35.3%.
In the case of `Cc1ccc(S(=O)(=O)N(CC(=O)O)c2ccc(Cl)c(C(F)(F)F)c2)cc1` it was 1.44%; in that of `Cc1ccccc1OCc1nnc(SCC(=O)NCc2ccccc2)n1C`, -18.1%; in that of `O=C(Nc1nnc(SCCN2CCOCC2)s1)C1CC(=O)N(c2ccc(F)cc2)C1` (stereo not drawn), 19.3%.
As to `COc1ccc(CCNC(=O)c2ccc3c(=O)n(Cc4ccco4)c(=S)[nH]c3c2)cc1OC`, the “hERG current change (%, negative = inhibition) at 10uM” value was determined as 17.2%.
Under `CCCC(C)C(=O)Nc1nc(C)c(-c2csc(Nc3ccc(Cl)cc3)n2)s1` (stereo not drawn) stands 12.4%.
Regarding `Cc1ccc(O)c(N=Cc2ccc(C)s2)c1`, the “hERG current change (%, negative = inhibition) at 10uM” value is recorded as 19.7%.
On to `O=C(CSc1ncn[nH]1)Nc1nnc(-c2ccccc2)s1`, for which the “hERG current change (%, negative = inhibition) at 10uM” value is 17.3%.
Under `COc1ccc(Cl)cc1NC(=O)C1CCCO1` (stereo not drawn) stands -4.86%; under `Cc1ccccc1C(=O)NC1CCN(CC(=O)NCc2ccc(F)cc2)CC1`, -44.2%; under `Cc1cc(C)c(S(=O)(=O)N2CCOCC2)cc1C`, 13.1%.
As to `Cc1cc(C)c(C#N)c(SCC(=O)CC(=O)OC(C)C)n1`, the “hERG current change (%, negative = inhibition) at 10uM” value is 1.82%.
Consider `CCc1cccc(C)c1NC(=S)NCc1cccn1C`, for which the “hERG current change (%, negative = inhibition) at 10uM” value is listed as -2.94%.
For `Cl.NCCC(=O)N1c2ccccc2Sc2ccc(Cl)cc21`, the “hERG current change (%, negative = inhibition) at 10uM” value is -10.8%.
In the case of `CC(Oc1ccc(-c2nnco2)cc1)C(=O)N1CCOCC1` (stereo not drawn) it was 18.2%.
Consider `CC(=O)Nc1ccc(S(=O)(=O)Nc2ccc(S(=O)(=O)Nc3nccs3)cc2)cc1`, for which the “hERG current change (%, negative = inhibition) at 10uM” value was 14.3%.
For `Cc1cccc(C)c1NCC(=O)N1CCN(Cc2ccccc2)CC1.Cl`, the “hERG current change (%, negative = inhibition) at 10uM” value was -12.1%.
Regarding `CCc1ccc(N2C(=O)c3sc4nnc(-c5ccccc5)c(=O)n4c3C2=O)cc1`, the “hERG current change (%, negative = inhibition) at 10uM” value is -33.7%.
As to `CCCC(c1nnnn1Cc1cccs1)N1CCN(c2ccc(OC)cc2)CC1` (stereo not drawn), the “hERG current change (%, negative = inhibition) at 10uM” value is -6.58%.
Under `Cn1c(=O)n(C)c2cc(/C=C3/SC(=O)N(CC(=O)N4CCOCC4)C3=O)ccc21` stands -11.3%; under `O=S(=O)(c1cccc2nonc12)N1CCCCC1`, 9.19%; under `COc1cccc(/C=C/C(=O)OCC(=O)c2ccc(S(=O)(=O)N3CCCCC3)cc2)c1OC`, 3.54%.
As to `CCC(C)(C)NC(=O)C(c1ccco1)N(C(=O)Cn1nnc2ccccc21)c1ccc2c(c1)OCO2` (stereo not drawn), the “hERG current change (%, negative = inhibition) at 10uM” value was -10.2%.
Under `O=C(c1cccc2ccccc12)C1CCCN(Cc2ccon2)C1` (stereo not drawn) stands -29.3%; under `CCCCNC(=O)c1onc(CSc2ccc(C)c(C)c2)c1C(=O)O`, 2.94%.
On to `Cc1ccnc(NS(=O)(=O)c2ccc(N=Cc3c(O)n(C)c(=O)n(C)c3=O)cc2)n1`, for which the “hERG current change (%, negative = inhibition) at 10uM” value turned out to be 14.3%.
With `CC(C)c1c(C(=O)N/N=C2\CCc3ccccc32)nnn1-c1nonc1N`, the “hERG current change (%, negative = inhibition) at 10uM” value is given as 19%.
Under `CC1(C)CC(=O)C2=C(C1)OC(N)=C(C#N)C2c1ccccc1[N+](=O)[O-]` (stereo not drawn) stands -28.3%; under `Br.Cc1ccc2nc(-c3ccc(N4C(=N)SC5CS(=O)(=O)CC54)cc3)sc2c1` (stereo not drawn), 0.407%; under `Cc1ccc(S(=O)(=O)NC2=NCN(CCOC(=O)c3ccccc3)CN2)cc1`, 1.57%.
With `Cl.NC(Cc1nc2ccccc2[nH]1)c1ccc(Cl)cc1` (stereo not drawn), the “hERG current change (%, negative = inhibition) at 10uM” value is -20.2%.
Take `CCNc1cc(Cl)nc(SC)n1`: the “hERG current change (%, negative = inhibition) at 10uM” value is on record as -15.3%.
Under `Cc1c(CCC(=O)NCCCn2ccnc2)c(=O)oc2c(C)c3occ(C(C)(C)C)c3cc12` stands -67%; under `COc1ccc(CC(=O)NC(C)(C)C)cc1S(=O)(=O)N1CCOCC1`, 10.3%.
